The list shows a part of the results.
B1: PhoQ; a variant is named by its letters at X, in order, P23837 (parent)
chain: MKKLLRLFFPLSLRVRFLLATAAVVLVLSLAYGMVALIGYSVSFDKTTFRLLRGESNLFYTLAKWENNKLHVELPENIDKQSPTMTLIYDENGQLLWAQRDVPWLMKMIQPDWLKSNGFHEIEADVNDTSLLLSGDHSIQQQLQEVREDDDDAEMTHSVAVNVYPATSRMPKLTIVVVDTIPVELKSSYMVWSWFIYVLSANLLLVIPLLWVAAWWSLRPIEALAKEVRELEEHNRELLNPATTRELTSLVRNLNRLLKSERERYDKYRTTLTDLTHSLKTPLXXLQXXLRSLRSEKMSVSDAEPVMLEQISRISQQIGYYLHRASMRGGTLLSRELHPVAPLLDNLTSALNKVYQRKGVNISLDISPEISFVGEQNDFVEVMGNVLDNACKYCLEFVEISARQTDEHLYIVVEDDGPGIPLSKREVIFDRGQRVDTLRPGQGVGLAVAREITEQYEGKIVAGESMLGGARMEVIFGRQHSAPKDE

Variants of: B1
Assay: enrichment ratio after two sorts for PhoP signalling (ratio (wild type AVST 3.29)); higher = more functional
Details: with PhoP (E. coli)

Variant	enrichment ratio
QFPG	≤ 0.25
TWHF	≤ 0.25
FHAY	≤ 0.25
RHKG	≤ 0.25
HNTC	≤ 0.25
KGVT	0.605
GKSI	≤ 0.25
YYMT	≤ 0.25
RIHM	≤ 0.25
SDGY	≤ 0.25
LRQH	0.346
PATQ	≤ 0.25
KLFQ	≤ 0.25
RYWI	≤ 0.25
EAIL	≤ 0.25
TLWC	≤ 0.25
LCIV	≤ 0.25
HSRD	≤ 0.25
DQWR	≤ 0.25
WQFW	≤ 0.25
PAIH	≤ 0.25
VNGV	≤ 0.25
QPWA	≤ 0.25
DGIN	≤ 0.25
VPQP	≤ 0.25

Variant	enrichment ratio
DKWV	≤ 0.25
DEQH	≤ 0.25
QKRI	≤ 0.25
QSPA	≤ 0.25
TEIT	1.69
YIKV	≤ 0.25
PTLD	≤ 0.25
PQCQ	≤ 0.25
VQWY	≤ 0.25
FQYV	≤ 0.25
EHIV	≤ 0.25
AHVI	≤ 0.25
GPVI	≤ 0.25
FMNW	≤ 0.25
YQRG	≤ 0.25
PMRE	≤ 0.25
MHPH	≤ 0.25
FPKG	0.672
SMLG	9.08
REKM	≤ 0.25
SQWY	≤ 0.25
TTNK	≤ 0.25
GANP	≤ 0.25
LWFN	≤ 0.25
MIKG	≤ 0.25

Variant	enrichment ratio
EHLR	≤ 0.25
EPFA	≤ 0.25
IVVL	≤ 0.25
SEGM	6.17
RCTR	≤ 0.25
IFMQ	≤ 0.25
GQED	≤ 0.25
DKQE	≤ 0.25
VQWN	≤ 0.25
HWPP	≤ 0.25
RIHA	≤ 0.25
QDCD	≤ 0.25
ITHF	≤ 0.25
GNFE	≤ 0.25
PGFG	≤ 0.25
FEYF	≤ 0.25
LNRE	≤ 0.25
FTRG	≤ 0.25
ATPY	≤ 0.25
IPHI	≤ 0.25
SHQW	≤ 0.25
WLRY	≤ 0.25
IDKP	≤ 0.25
VKQY	≤ 0.25
PYSM	≤ 0.25

Variant	enrichment ratio
RVPK	≤ 0.25
HSRY	≤ 0.25
RMDL	≤ 0.25
VEMP	≤ 0.25
RMPN	≤ 0.25
VYER	≤ 0.25
YHKC	≤ 0.25
QNWH	≤ 0.25
NWYL	≤ 0.25
NIRE	≤ 0.25
MARD	≤ 0.25
AEVQ	0.317
MIWD	≤ 0.25
FITG	≤ 0.25
YIQK	≤ 0.25
RYPK	≤ 0.25
IEMP	≤ 0.25
RPYN	≤ 0.25
MHTH	≤ 0.25
YKDI	≤ 0.25
LRCQ	≤ 0.25
FPHG	≤ 0.25
RPHP	≤ 0.25
ERKS	≤ 0.25
IMRN	≤ 0.25

Variant	enrichment ratio
PNQQ	≤ 0.25
HPLI	≤ 0.25
NPWD	6.21
LYKT	≤ 0.25
VEYS	≤ 0.25
SIHW	≤ 0.25
NGAM	≤ 0.25
NFLI	≤ 0.25
DHHL	≤ 0.25
YMPS	≤ 0.25
YHER	≤ 0.25
HRFG	≤ 0.25
DLWW	≤ 0.25
HVPN	≤ 0.25
FGYN	≤ 0.25
MMSI	8.62
VRIA	≤ 0.25
LGKH	≤ 0.25
PNMT	≤ 0.25
FKQV	≤ 0.25
MGGL	4.99
MHVN	≤ 0.25
SLWG	≤ 0.25
NGLK	≤ 0.25
NGWM	≤ 0.25

Variant	enrichment ratio
DAPS	≤ 0.25
SPEC	≤ 0.25
TIIV	≤ 0.25
PMYI	≤ 0.25
INGA	≤ 0.25
DERE	≤ 0.25
MWAA	≤ 0.25
FFIF	≤ 0.25
LQYQ	≤ 0.25
DMHN	≤ 0.25
TYPL	≤ 0.25
WMMM	≤ 0.25
MNPN	≤ 0.25
IRSN	≤ 0.25
NGER	≤ 0.25
ATTW	7.3
SRGA	≤ 0.25
EILK	≤ 0.25
QFKT	≤ 0.25
LDPL	≤ 0.25
AKIT	2.69
HMWF	≤ 0.25
DPPV	≤ 0.25
FYIQ	≤ 0.25
ADNF	≤ 0.25

Variant	enrichment ratio
TYMV	1.21
HHGK	≤ 0.25
YFPI	0.265
RPIE	≤ 0.25
DNCA	≤ 0.25
FGKE	≤ 0.25
YCML	12.7
SRAM	≤ 0.25
GSDR	≤ 0.25
LALL	7.29
AELI	30.6
AFKV	≤ 0.25
FFAW	≤ 0.25
SDYP	≤ 0.25
ILYH	≤ 0.25
HHYG	≤ 0.25
SEKA	≤ 0.25
PCPN	≤ 0.25
RIKI	≤ 0.25
WGPI	≤ 0.25
LACL	≤ 0.25
TPME	≤ 0.25
KMTK	≤ 0.25
YKCK	≤ 0.25
QSCP	≤ 0.25

Variant	enrichment ratio
SVFF	≤ 0.25
PGWV	≤ 0.25
CLLA	≤ 0.25
IDWT	≤ 0.25
RTPV	≤ 0.25
FQEM	≤ 0.25
RTWD	≤ 0.25
MLQF	≤ 0.25
FIFH	≤ 0.25
FDAK	≤ 0.25
HKAG	≤ 0.25
NKQV	≤ 0.25
YCHY	≤ 0.25
MDWH	≤ 0.25
QICP	≤ 0.25
WTYY	≤ 0.25
FHKP	≤ 0.25
YPVT	≤ 0.25
GDFQ	≤ 0.25
DTVP	≤ 0.25
